This sample is rich in variants without activity.
B1: TPR 5TU (parent)
chain: GGAUCUUCUCGAUCUAACAAAAAAGACAAAUCUGCCACAAAGCUUGAGAGCAUCUUCGGAUGCAGAGGCGGCAGCCUUCGGUGGCGCGAUAGCGCCAACGUUCUCAACUAUGACACGCAAAACGCGUGCUCCGUUGAAUGGAGUUUAUCAUG

Variants of: B1
Experiment: polymerase ribozyme fitness, log enrichment relative to wild type (log ratio); higher = more active; in vitro selection for triplet polymerase activity
Outline: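 Frozen incubation at −7 °C formed the core of a single, triplicate in vitro selection round applied to PCR-built, transcribed mutant libraries of each subunit of a heterodimeric triplet polymerase ribozyme. Extended constructs were gel-excised, captured with streptavidin beads and amplified by RT-PCR, and input and output libraries were Illumina-sequenced with a filter of ≥10 input reads and ≥1 read per output. Fitness is the logarithm of genotype enrichment relative to wild-type enrichment, with inverse-variance-weighted replicate averaging, and the logarithm is base 2.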

| Variant | polymerase ribozyme fitness (log ratio) |
| --- | --- |
| C27G U44G C51A C57G G80C G100C U101G G140A | ≤ -4.2 |
| C27U A40C C43G G71C C85U C114U G152U | ≤ -4.2 |
| C27A A49C G68C C79A G81A C87A C105U C149G | ≤ -4.2 |
| A28C G42A C93U A107U U146G A147U | ≤ -4.2 |
| A28C C36A U53G U56G C87U | ≤ -4.2 |
| C27G U53A C54A C93G | ≤ -4.2 |
| A28C C32G C36U U145C | ≤ -4.2 |
| A28C G58A C85A A142G | ≤ -4.2 |
| C27A C54U U56A C87G U109C A122C U127A G141U C149A | ≤ -4.2 |
| C27U A29U A41G U61A U148G | ≤ -4.2 |
| C27G A37U A64C G88C A91C A120G A122U U148G | -4.09 |
| C27U A120G C125A | -1.81 |
| C27U A49C | ≤ -4.2 |
| A28C U144G | -4.03 |
| C27U G67U C85G C93U C116A G117A | ≤ -4.2 |
| A26U U56A C93U | -3.4 |
| A28C C57A A66U G71A C87A U102G A138C | ≤ -4.2 |
| C27G U55A A73G U77A C87A A142U | ≤ -4.2 |
| C27U U55C A60C G80A C85G | ≤ -4.2 |
| A28C A29C G46C C75A G86A G140C | ≤ -4.2 |
| C27A C32U C35G C54G G68A C93U A107G C108U | ≤ -4.2 |

| Variant | polymerase ribozyme fitness (log ratio) |
| --- | --- |
| C27G C51U G70A C72G C87U G141U | ≤ -4.2 |
| C27U G50A A64G C96A C131U U145G | ≤ -4.2 |
| C27G A107C | ≤ -4.2 |
| A28C G46C C75A A89U C95U U102G | ≤ -4.2 |
| C27G A52C U53A A64G C69A U78A C79A C87G G94C C95A A142C | ≤ -4.2 |
| C27A C51A G58U C95U C105G A110C U134C A142G | ≤ -4.2 |
| C27A A28G A40C A41U U148C | ≤ -4.2 |
| A28C G88A G94A A97C | ≤ -4.2 |
| C27U G59A A66G C96A A97U U102A A110G G143A | ≤ -4.2 |
| C27U C51U G83A | -2.56 |
| C27U A52G C105G G141C | ≤ -4.2 |
| A28C C32G C63U | ≤ -4.2 |
| C27G A52U C69U C85G | ≤ -4.2 |
| C27G A30U A60G G88U C116U | ≤ -4.2 |
| C27U A49G G86U A97U C105A | ≤ -4.2 |
| C27A G62A G70C G94C | ≤ -4.2 |
| C27G A37U U55A U56A G70A G84C C108U | ≤ -4.2 |
| C27G C63U C75U C93G U145A | ≤ -4.2 |
| A28C A52G C103G A115U U148C | ≤ -4.2 |
| C27U A64C C85U U130A A137U U146A | ≤ -4.2 |
| A28G A39U A60G C125U | ≤ -4.2 |

| Variant | polymerase ribozyme fitness (log ratio) |
| --- | --- |
| C27U A64C A73U U101C C118G U148C | ≤ -4.2 |
| A26U U56A A98G | -1.83 |
| A28C U90C | ≤ -4.2 |
| A28C U53A C57G A97U G117U | ≤ -4.2 |
| C27U U45A A91U G124U U127A | ≤ -4.2 |
| C27G G58C G86A C105A U144A | ≤ -4.2 |
| A28C U82C C99G | ≤ -4.2 |
| C27U C43U C85U U90C A97U A142C | ≤ -4.2 |
| C27U A40U G59U A107G C116A | ≤ -4.2 |
| C27A G34U C103A A137G | ≤ -4.2 |
| A28C U53A U144A | ≤ -4.2 |
| C27A A29G C57A G83C C131G | ≤ -4.2 |
| C27A C43U C76U A89G G92A C99A U144A | ≤ -4.2 |
| C27A C43G U55A C69U | ≤ -4.2 |
| C27U C51U A52C U90C C95U C108G C129G U139A U144G | ≤ -4.2 |
| A28C A40C U77C G141C | ≤ -4.2 |
| C27U G59A C87A A138U G143C | ≤ -4.2 |
| C27A C54U A66U G67A G86U A115U A138U | ≤ -4.2 |
| C27G G62C U90A G92U C96U U101C A120C C129G G140C | ≤ -4.2 |
| A28C A39G U55G U90G G94A A97C C114A | ≤ -4.2 |
| A28C A30U C35G C87A C105U | -3.84 |

| Variant | polymerase ribozyme fitness (log ratio) |
| --- | --- |
| A28C C35G C43U G59C A91G A121C C125A | ≤ -4.2 |
| C27G U45A U61C G62C C96U G117A U127G | ≤ -4.2 |
| A28C A49U C51U C72U C75G C87G U90G U135A | ≤ -4.2 |
| C27G A30C G58U C96U C116G | ≤ -4.2 |
| C27U C79A C103A | ≤ -4.2 |
| C27U A47C C85U A107G C114U A122U G136C | ≤ -4.2 |
| C27G G68U C76G A120C U145C | ≤ -4.2 |
| C27U G58C G83A A91U A107C U127A | ≤ -4.2 |
| C27A G83A | ≤ -4.2 |
| C27G G34U G48U U53C C79G C93G G136U G152U | ≤ -4.2 |
| C27G A47G G50C G67C G83C G136A | ≤ -4.2 |
| C27A C79U G92A C103G U135A | ≤ -4.2 |
| A28C C57U C95A C99A C131U G136A | ≤ -4.2 |
| C27U A49C C72U G80U | ≤ -4.2 |
| A28C C57G G84A C116A C118A G133U | ≤ -4.2 |
| C27G A47G A49U C51U C57U G92U C96A A97G A150U | ≤ -4.2 |
| A28C G42U G62A A64C G83A G84U G126A | ≤ -4.2 |
| C27A A40U G83U C87G A138U | ≤ -4.2 |
| C27G A30U A52G G68A U77A C87G C108A A119C A122U C125G G143C | ≤ -4.2 |
| C27A A73C C93A A98C C149U | ≤ -4.2 |
| C27G A29C A41C G42A C54A U56A A91U G141A | ≤ -4.2 |

From the RNAGym collection of RNA variant scans (doi:10.1073/pnas.2313332121)
